Target: T1, LunX protein on the surface of lung cancer NCI-H292 cells (human, UniProt Q9NP55 20-256)
T1 construct: whole, on cells; Endogenous protein on live NCI-H292 cells; also called lung-specific X protein
T1 sequence (looked up): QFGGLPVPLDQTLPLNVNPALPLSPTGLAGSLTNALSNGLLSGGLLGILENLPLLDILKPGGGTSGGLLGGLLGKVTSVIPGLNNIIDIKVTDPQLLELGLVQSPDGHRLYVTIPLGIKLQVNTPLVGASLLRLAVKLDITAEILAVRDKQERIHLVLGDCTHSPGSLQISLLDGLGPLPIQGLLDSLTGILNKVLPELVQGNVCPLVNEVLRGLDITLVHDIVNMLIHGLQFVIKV
Test: flow cytometry on live NCI-H292 cells
Method: Fresh lung cancer NCI-H292 cells (purchased from the Shanghai Cell Bank of the Chinese Academy of Sciences) are divided into two groups; one group is labeled with chimeric antibody and the other group is labeled with human IgG (control). Two groups are further labeled with FITC-labeled mouse anti-human IgG antibody against human IgG. All the labeling steps are performed at 4° C. for 30 minutes. The cells are collected by centrifugation at 350 g for 5 minutes, and washed 3 times with 1×PBS. It can be seen that the chimeric antibody ChAb1 is capable of binding to the LunX protein on the surface of live lung cancer cells.

B1: chimeric antibody ChAb1 (Fc fusion)
chain: DIVLTQSPASLAVSLGQRATISCRASKSVSTAGYSYMHWYQQKPGQTPKLLIYLASKLESGVPARFSGSGSGTDFTLNIHPVEEEDAATYYCQHSRELTFGSGTKLEIKRAGGGGSGGGGSGGGGSQVQLQQSGPELVKPGASVKISCKTSGYAFSRSWMSWVKQRPGQGLEWIGRIYPGDGDTNYNGKFKGKATLTADKSSSTAYMQLSSLTSVDSAVYFCARSGGIQGYGMDYWGQGTSVTVSS[letters of human IgG1 Fc not shown]
notes: also called scFv-Fc of Ab1
B1: binds.

B2: chimeric antibody ChAb2 (Fc fusion)
chain: DIVVTQSPAALAVSLGQRATISCRASKSVSTSGYTYMHWYQQKPGQPPKLLIYLASKLESGVPARFSGSGSGTDFTLNIHPVEEEDAATYYCQHSRDLTFGSGTKLEIKRAGGGGSGGGGSGGGGSQVQLQQSGPELVKPGASVKISCKTSGYAFSRSWMSWVKQRPGQGLEWIGRIYPGDGDTKYSGKFEGKATLTADKSSSTAYMQLSSLTSVDSAVYFCARSGGIQGYGMDYWGQGTSVTVSS[letters of human IgG1 Fc not shown]
notes: also called scFv-Fc of Ab2
B2: binds.

— US20190322758A1 (IMMUNOPHARMACEUTIC INSTITUTE OF HEFEI RUIDA, published 2019)
